The whole screen tested about 110,000 compounds, of which about 230 (0.21%) showed an effect of 50% or more. Some of the results follow.
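Further: 30 min substrate incubation versus DMSO and 10 µM JCP410 controls.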

Sequence of DPAP1 (Q8IIJ9 whole entry, looked up): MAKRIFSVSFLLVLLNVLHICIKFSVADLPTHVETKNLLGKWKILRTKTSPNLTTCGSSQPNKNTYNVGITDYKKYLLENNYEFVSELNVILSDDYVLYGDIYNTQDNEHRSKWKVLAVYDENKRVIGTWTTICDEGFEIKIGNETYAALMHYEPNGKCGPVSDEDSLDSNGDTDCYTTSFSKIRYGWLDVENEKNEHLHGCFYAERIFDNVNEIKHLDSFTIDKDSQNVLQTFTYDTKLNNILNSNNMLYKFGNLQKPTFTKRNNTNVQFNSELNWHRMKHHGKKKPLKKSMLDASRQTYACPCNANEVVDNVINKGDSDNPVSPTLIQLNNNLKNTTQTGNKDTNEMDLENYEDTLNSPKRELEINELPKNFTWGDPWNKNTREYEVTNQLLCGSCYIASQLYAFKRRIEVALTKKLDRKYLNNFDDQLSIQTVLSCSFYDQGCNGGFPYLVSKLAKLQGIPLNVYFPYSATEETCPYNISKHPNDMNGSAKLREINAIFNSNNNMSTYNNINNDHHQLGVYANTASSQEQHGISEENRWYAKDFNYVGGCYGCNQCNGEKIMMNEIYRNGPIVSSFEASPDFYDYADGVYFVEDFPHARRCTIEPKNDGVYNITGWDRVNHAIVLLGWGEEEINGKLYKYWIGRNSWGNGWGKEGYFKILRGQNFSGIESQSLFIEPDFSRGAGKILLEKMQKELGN

The experiment addresses DPAP1 (Plasmodium falciparum, UniProt Q8IIJ9). The experiment is described as follows: primary screen, percent inhibition; read by cleavage of a fluorogenic dipeptide substrate; higher = more effect of the substance. On the set-up: species or system P. falciparum D10 trophozoite lysates; single well.
Take `CCc1c(C)sc2nc(C)n(-c3ccc(OC)cc3)c(=O)c12`: the “% Inhibition @ 10 uM” value is listed as -5.6%.

Turning to `CCOC(=O)c1nn(-c2ccccc2)c2c1CCc1occc1-2`, the “% Inhibition @ 10 uM” value was -8.98%.

`Cc1ccc(NC(=O)c2sc(Cl)nc2C)c(C)c1`: the “% Inhibition @ 10 uM” value is 3.24%.

With `CCOC(=O)c1c(C)c(-c2ccccc2)n(CC(=O)NCc2ccc3c(c2)OCO3)c1C`, the “% Inhibition @ 10 uM” value was -3.44%.

Take `CNS(=O)(=O)c1cn(CC(=O)NCc2ccccc2)cc1S(=O)(=O)NC`: the “% Inhibition @ 10 uM” value is -11.6%.

Regarding `Cc1ccccc1NC(=O)c1cccnc1`, the “% Inhibition @ 10 uM” value turned out to be 0.605%.

On to `CCc1n[nH]c(SCc2cccc(CSc3n[nH]c(CC)n3)c2)n1`, for which the “% Inhibition @ 10 uM” value worked out at 1.63%.

For the compound `O=C(NCc1ccc(Cl)cc1)c1cc2c(s1)CS(=O)(=O)C2`, the “% Inhibition @ 10 uM” value is recorded as -5.89%.

Consider `CCOc1cc(C2C(C(=O)OC)=CN(CCOC)C=C2C(=O)OC)ccc1O`, for which the “% Inhibition @ 10 uM” value was 0.408%.

For `CCN1CCN(C2CC(=O)N(c3ccc(OC(F)(F)Cl)cc3)C2=O)CC1` (stereo not shown), the “% Inhibition @ 10 uM” value is on record as 2.49%.

Regarding `O=C(NCc1cccnc1)c1cc(-c2ccc3c(c2)OCO3)on1`, the “% Inhibition @ 10 uM” value is on record as -1.21%.

For `Cc1nn(-c2ccccc2)c2c1C(c1ccc3c(c1)OCO3)C(C#N)=C(N)O2` (stereo not shown), the “% Inhibition @ 10 uM” value is recorded as -0.902%.

`CC(C)CC(=O)N1CCN(C2CCN(Cc3ccccc3)CC2)CC1`: the “% Inhibition @ 10 uM” value is recorded as -4.7%.

On to `C=CCOc1ccc(CNCc2cccs2)cc1OC`, for which the “% Inhibition @ 10 uM” value came to 0.163%.

As for `O=C(N[C@H](/C=C/S(=O)(=O)c1ccccc1)CCc1ccccc1)C(CSCc1ccccc1)CSCc1ccccc1`, the “% Inhibition @ 10 uM” value is on record as -8.82%.

Consider `O=C(O)C1CCCCC1C(=O)N1CCN(c2ccc([N+](=O)[O-])cc2)CC1` (stereo not shown), for which the “% Inhibition @ 10 uM” value is -6.36%.

Consider `CCOC(=O)c1cnn2c1NC(c1ccccc1)CC2C(F)F` (stereo not shown), for which the “% Inhibition @ 10 uM” value is on record as -0.186%.

For `CC(C)c1ccc(S(=O)(=O)Nc2ccc3oc(=O)sc3c2)cc1`, the “% Inhibition @ 10 uM” value amounted to 1.13%.

On to `Cc1nn(C(C)C(=O)N(C)Cc2ccccc2)c(=O)c2c1sc1ccccc12` (stereo not shown), for which the “% Inhibition @ 10 uM” value is listed as -5.78%.

Regarding `CCc1ccc(CNC(=O)Cn2nc(C)n3c(cc4cc(F)ccc43)c2=O)cc1`, the “% Inhibition @ 10 uM” value amounted to 1.68%.

As to `CCOC(=O)N1CCN(S(=O)(=O)c2ccc(OC)c(C)c2)CC1`, the “% Inhibition @ 10 uM” value was 6.65%.

As for `CCCCSCC(O)CN1CCOCC1` (stereo not shown), the “% Inhibition @ 10 uM” value was found to be 0.132%.

On to `N#Cc1cc2c(nc1SCC(=O)Nc1nccs1)CCC2`, for which the “% Inhibition @ 10 uM” value came to 3.72%.

Turning to `Cc1ccc(OCC(=O)Nc2ccc(S(=O)(=O)N3CCOCC3)cc2)c(Br)c1`, the “% Inhibition @ 10 uM” value was determined as 3.5%.

Consider `Cc1ccc(Cn2c(-c3cccs3)noc2=O)cc1`, for which the “% Inhibition @ 10 uM” value is reported as 1.39%.

On to `CCOC(=O)N1CCC(NC(=O)CCc2c(C)nc3c(c2C)c(=O)n(C)c(=O)n3C)CC1`, for which the “% Inhibition @ 10 uM” value is recorded as -3.33%.

In the case of `O=C1N/C(=C/c2cc(Br)ccc2O)C(=O)N1c1cccc(Cl)c1`, the “% Inhibition @ 10 uM” value amounted to 3.81%.

In the case of `CCn1c(C(=O)O)c(CNCc2ccccc2Cl)c2ccc(C)cc21`, the “% Inhibition @ 10 uM” value turned out to be 4.41%.

Take `O=C(Nc1ccc(S(=O)(=O)Nc2nccs2)cc1)Nc1ccc(Cl)c(Cl)c1`: the “% Inhibition @ 10 uM” value is -7.09%.

Turning to `Cc1nn(CCC#N)c(C)c1Br`, the “% Inhibition @ 10 uM” value worked out at 2.38%.

In the case of `CCOc1cc2c(cc1/C=C1/NC(=O)N(CC(=O)Nc3cccc(C)c3)C1=O)OCO2`, the “% Inhibition @ 10 uM” value is recorded as -12.5%.

Turning to `COc1cc(C2CC3=Nc4ccccc4NC(c4ccncc4)C3=C(O)C2)cc(OC)c1OC` (stereo not shown), the “% Inhibition @ 10 uM” value is -4.6%.

As for `O=C(NCCc1ccc(Cl)cc1)c1ccc(CN2CC(=O)N3CCCCC3C2=O)cc1` (stereo not shown), the “% Inhibition @ 10 uM” value stood at 2.22%.

Turning to `CCOc1ccc(S(=O)(=O)NCc2ccccc2Cl)cc1C(N)=O`, the “% Inhibition @ 10 uM” value is -3.34%.

Take `O=C1CC(N2CCc3ccccc3C2)C(=O)N1c1ccccc1Cl` (stereo not shown): the “% Inhibition @ 10 uM” value is on record as 0.528%.

`CCN(CC)CCN(C)C1CCCC(C)C1` (stereo not shown): the “% Inhibition @ 10 uM” value is reported as -1.56%.

For `c1ccc(OCCCn2ccnc2)cc1`, the “% Inhibition @ 10 uM” value turned out to be 1.04%.

`O=C(CN1C(=O)S/C(=C/c2ccccc2Cl)C1=O)N1CCOCC1`: the “% Inhibition @ 10 uM” value worked out at 0.793%.

Turning to `CC(=O)Nc1cccc(/N=C/c2c(C)nn(-c3ccc(C)cc3)c2O)c1`, the “% Inhibition @ 10 uM” value was 3.45%.

On to `Cc1oc2ccc(OC(C)C(=O)O)cc2c1C(=O)OC(C)C` (stereo not shown), for which the “% Inhibition @ 10 uM” value turned out to be 1.67%.

As for `CC(C)c1ccc(NC(=O)Nc2ccccc2)cc1`, the “% Inhibition @ 10 uM” value is listed as -0.127%.

For `CCOC(=O)N1CCC(NC(=O)C(CC(C)C)NC(=O)C2CCC(C)CC2)CC1` (stereo not shown), the “% Inhibition @ 10 uM” value was -1.73%.

Turning to `COc1ccc(C)cc1-n1nnc(-c2nc(-c3cccs3)no2)c1N`, the “% Inhibition @ 10 uM” value is -1.59%.

As to `COCCCNC(=O)C1CCCN(S(=O)(=O)N2CCC3(CC2)OCCO3)C1` (stereo not shown), the “% Inhibition @ 10 uM” value is on record as -4.37%.

As to `COCc1cc(C)nc2sc3c(-c4ccccc4)[nH]nc3c12`, the “% Inhibition @ 10 uM” value came to 4.31%.

`Cc1ccc(Cn2c(C(=O)O)cc3sccc32)cc1`: the “% Inhibition @ 10 uM” value is 2.9%.

Regarding `CC(NC(=O)c1cc(-c2ccccc2)c(N2CCOCC2)s1)c1ccccc1` (stereo not shown), the “% Inhibition @ 10 uM” value was -3.34%.

Consider `Cc1c(Cc2ccccc2)c(O)n2c(nc3ccccc32)c1C#N`, for which the “% Inhibition @ 10 uM” value is reported as 4%.

On to `CC(C)Cc1csc(NC(=O)c2ccc(Br)cc2)c1C(=O)O`, for which the “% Inhibition @ 10 uM” value is reported as -4.43%.

With `CNS(=O)(=O)c1cn(CC(=O)N(C)Cc2ccccc2)cc1S(=O)(=O)NC`, the “% Inhibition @ 10 uM” value is on record as -5.9%.

For `CCOC(=O)c1c(C)[nH]c(C)c1S(=O)(=O)NC(C)(C)C`, the “% Inhibition @ 10 uM” value amounted to 2.26%.

Consider `CCCCC(=O)Nc1nc(-c2ccc(S(=O)(=O)N3CCCC3)cc2)cs1`, for which the “% Inhibition @ 10 uM” value is listed as -1.84%.

Take `Cc1ccc(N2CC(C(=O)NCC(C)C)CC2=O)cc1` (stereo not shown): the “% Inhibition @ 10 uM” value is -8.58%.

On to `Cc1ccc(NC(=O)C(Cc2ccccc2)N2C(=O)C3C4C=CC(C4)C3C2=O)cc1C` (stereo not shown), for which the “% Inhibition @ 10 uM” value is given as -4.56%.

In the case of `COc1ccc(OCC(=O)N2CCN(c3ccccc3)CC2)cc1`, the “% Inhibition @ 10 uM” value was found to be 10.4%.

For the compound `O=S(=O)(c1cc(Cl)ccc1Cl)N1CCN(c2cccc(Cl)c2)CC1`, the “% Inhibition @ 10 uM” value was -3.04%.

As for `O=c1oc2c(F)cc(F)cc2cc1S(=O)(=O)c1ccccc1`, the “% Inhibition @ 10 uM” value was -1.3%.

Regarding `CCOc1ccc2nc(N3CCC(C(=O)NC(C)c4ccccc4)CC3)sc2c1` (stereo not shown), the “% Inhibition @ 10 uM” value is recorded as 1.8%.

With `NS(=O)(=O)c1ccc(CCNC(=O)CNC(=O)C2CCCCC2)cc1`, the “% Inhibition @ 10 uM” value is -0.228%.

For `O=C(O)c1ccccc1SC1CC(=O)N(c2ccccc2C(F)(F)F)C1=O` (stereo not shown), the “% Inhibition @ 10 uM” value is recorded as 1.34%.

For the compound `N#CC1=C(N)Oc2c(c(=O)oc3ccccc23)C1c1cccc(Cl)c1` (stereo not shown), the “% Inhibition @ 10 uM” value is recorded as -2.51%.

In the case of `Cc1nc2nc(C)c(CCC(=O)N3CCN(Cc4ccccc4)CC3)c(C)n2n1`, the “% Inhibition @ 10 uM” value is listed as -6.03%.

On to `Cc1nc2sc(C(=O)NC3CCCCC3)c(N)c2c(C)c1Cl`, for which the “% Inhibition @ 10 uM” value was -4.04%.

`CN(c1cccc(NC(=O)CN(c2cccc(Br)c2)S(C)(=O)=O)c1)S(C)(=O)=O`: the “% Inhibition @ 10 uM” value amounted to 3.75%.
